# Reference: article PMC4336329 (PLoS ONE, 2015)
# Screen size: about 310,000 compounds; about 14,000 (4.5%) showed an effect of 50% or more. The effect is printed as a negative number. The list shows a part of the results.
# Molecular target: human ether-à-go-go-related gene (hERG) potassium channel (human, UniProt Q12809)
# Assay: primary screen, population patch clamp on CHO cells stably expressing hERG
# 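Further: peak tail current of the secondary pulse compared with the same well before compound.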
# Sequence of human ether-à-go-go-related gene (hERG) potassium channel (Q12809 whole entry, looked up): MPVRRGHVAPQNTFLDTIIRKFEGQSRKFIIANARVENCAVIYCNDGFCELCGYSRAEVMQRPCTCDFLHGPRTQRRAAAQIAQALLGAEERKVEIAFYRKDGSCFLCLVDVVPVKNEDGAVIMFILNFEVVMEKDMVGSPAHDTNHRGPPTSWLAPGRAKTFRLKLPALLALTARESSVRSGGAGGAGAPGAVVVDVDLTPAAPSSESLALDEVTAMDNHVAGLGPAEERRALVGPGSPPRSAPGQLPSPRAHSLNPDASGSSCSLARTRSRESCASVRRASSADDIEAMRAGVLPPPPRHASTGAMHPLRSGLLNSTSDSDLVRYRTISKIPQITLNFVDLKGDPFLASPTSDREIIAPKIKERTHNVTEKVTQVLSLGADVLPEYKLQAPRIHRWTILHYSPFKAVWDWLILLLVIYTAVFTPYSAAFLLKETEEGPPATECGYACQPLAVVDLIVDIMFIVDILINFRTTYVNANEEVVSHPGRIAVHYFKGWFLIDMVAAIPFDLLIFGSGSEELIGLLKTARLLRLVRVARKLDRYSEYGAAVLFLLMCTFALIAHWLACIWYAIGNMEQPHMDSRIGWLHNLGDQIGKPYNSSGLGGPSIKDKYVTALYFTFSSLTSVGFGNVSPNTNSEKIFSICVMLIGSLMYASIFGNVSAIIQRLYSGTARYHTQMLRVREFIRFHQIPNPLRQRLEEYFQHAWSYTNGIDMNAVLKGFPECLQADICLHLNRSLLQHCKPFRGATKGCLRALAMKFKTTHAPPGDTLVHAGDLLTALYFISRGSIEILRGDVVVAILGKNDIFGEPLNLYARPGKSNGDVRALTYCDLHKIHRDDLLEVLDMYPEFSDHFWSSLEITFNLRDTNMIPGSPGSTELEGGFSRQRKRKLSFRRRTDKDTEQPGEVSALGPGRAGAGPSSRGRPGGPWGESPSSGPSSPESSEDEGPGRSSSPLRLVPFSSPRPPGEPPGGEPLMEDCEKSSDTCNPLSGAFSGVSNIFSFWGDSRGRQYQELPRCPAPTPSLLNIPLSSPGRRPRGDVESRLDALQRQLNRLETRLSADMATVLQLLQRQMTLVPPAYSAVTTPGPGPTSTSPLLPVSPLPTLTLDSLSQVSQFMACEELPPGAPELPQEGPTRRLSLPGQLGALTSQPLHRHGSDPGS
row,Structure (SMILES),"hERG current change (%, negative = inhibition) at 10uM [%]"
1,CCCCCn1c(=O)[nH]c2cc(C(=O)NCCN3C(C)CCCC3C)ccc2c1=O (stereo not shown),-27.4
2,CCN(CC)S(=O)(=O)c1cc(C(=O)Nc2ccncc2)ccc1Cl,-66.3
3,Cc1nc2cc(NC(=O)N3CCN(c4ccccn4)CC3)ccc2o1,5.32
4,Cc1nn(C(=O)c2cccs2)c(C)c1CN1C(=O)c2ccccc2C1=O,-0.617
5,COc1cccc(-c2csc(N3CCN(C(=S)Nc4ccccc4OC)CC3)n2)c1,2.75
6,CC1(C)CC(=O)/C(=C(/O)CCCN2C(=O)c3ccccc3C2=O)C(=NC(C)(C)C)C1,-14.6
7,COCCn1c(-c2ccc(OC)cc2)cnc1N,-18.8
8,Cc1nn(C(=O)c2cccc([N+](=O)[O-])c2)c(C)c1Cl,17
9,CCC(C)c1ccc(NC(=S)N2CCN(c3ccccn3)CC2)cc1 (stereo not shown),-9.76
10,Cc1ccc(Cl)cc1NC(=O)c1cc(NC(=O)C2CCCCC2C(=O)O)ccc1N1CCOCC1 (stereo not shown),-6.57
11,O=c1[nH]c(=O)n(Cc2ccco2)c(O)c1C=NCc1ccc2c(c1)OCO2,-22.3
12,Cc1cc(C)c(NC(=O)CN2C(=O)NC3(CCOc4ccccc43)C2=O)c(C)c1 (stereo not shown),-3.16
13,O=C1OC(CC(=O)N(Cc2nnc(-c3ccc(Cl)cc3)o2)C2CC2)c2ccccc21 (stereo not shown),-67.8
14,Cc1cccc(C#N)c1NC1=CC(=O)CC(C)(C)C1.Cl,-7.4
15,O=C(Cn1c(C(F)(F)F)nc2ccccc21)N=Nc1c(O)[nH]c2ccc(Br)cc12,15.9
16,CCOC(=O)c1sc2ccccc2c1OC(=O)c1ccccc1,-0.968
17,O=c1oc2ccccc2c2c1C(c1ccc(Cl)cc1)Nc1ccc3ccccc3c1-2 (stereo not shown),15.1
18,COC(=O)c1ccc(N2C(=O)CC(N3CCC(n4c(=O)[nH]c5ccccc54)CC3)C2=O)cc1 (stereo not shown),-0.853
19,O=C(Nc1ccc(F)cc1F)c1cncc(Br)c1,-3.88
20,COc1ccc(NC(=O)O/N=C/c2ccccc2Cl)cc1,-16.3
21,CCCCC1=CC2=CC(=O)C(C)(OC(=O)CC)C(=O)C2=CN1CCc1ccccn1 (stereo not shown),-4.43
22,CC(C)c1ccc(NC(=O)CCCN2C(=O)NC(C)(C)C2=O)cc1,10.3
23,CC(=O)c1ccc(NC(=O)CCc2nnc3ccc(N4CCC5(CC4)OCCO5)nn23)cc1,2.33
24,CCC(C)(C)NC(=O)C(OC(=O)c1ccco1)c1ccccc1F (stereo not shown),13.4
25,Cc1ccc(N=c2c([N+](=O)[O-])nn(-c3ccc4c(c3)OCCO4)n2O)c(Cl)c1,2.69
26,CCCNC(=O)OCC12CC3CC(CC(C3)C1)C2,-13
27,COc1ccc(N2CCN(C(=S)Nc3ccc(C)cc3C)CC2)cc1,28.7
28,COc1ccc(NC(=O)c2ccc(-c3ccccc3)cc2)cc1S(=O)(=O)N1CCOCC1,25.5

row,Structure (SMILES),"hERG current change (%, negative = inhibition) at 10uM [%]"
1,COc1cccc(OCCCCSc2ncccn2)c1,-15.1
2,O=C(CCS(=O)(=O)c1ccc(Cl)cc1)Oc1ccc2c(c1)OCO2,2.43
3,COc1ccc(-c2cc(C(=O)Nc3ccc(C)c(C)c3)no2)cc1,20.2
4,N/C(=N\OC(=O)c1ccc(Br)cc1)c1cccc([N+](=O)[O-])c1,23
5,Cc1ccc(OCc2ccccc2C)c([N+](=O)[O-])n1,-6.31
6,CCN(C(=O)COc1ccc(F)cc1Br)c1c(N)n(Cc2ccccc2)c(=O)[nH]c1=O,2.08
7,COc1ccc(C2CC3(O)CC(C#N)(C(=O)N3)C2(C#N)C#N)cc1 (stereo not shown),15.9
8,Cc1ccc(NC(=O)CSc2nc(O)cc(=O)n2-c2ccc(C)cc2)cc1,15.4
9,CC(C(=O)Nc1ccc(S(=O)(=O)N2CCCC2)cc1)N(C)Cc1ccc(F)cc1 (stereo not shown),-9.91
10,CCCc1ccc2oc(C(=O)N(C)Cc3ccn[nH]3)c(C)c2c1,-12
11,CCOc1ccccc1N1CCN(C(=O)c2ccc3[nH]c(C)c(C)c3c2)CC1,7.49
12,CCOc1ccc(NC(=O)CN(C)c2nnnn2-c2ccccc2)cc1OCC,0.42
13,CCc1cc(C(=O)Nc2nc(-c3ccccn3)cs2)sc1C,10.7
14,COCCn1c(SCC(=O)NC(C)c2ccc(F)cc2)nc2ccccc21 (stereo not shown),3.36
15,O=c1c2ccccc2nc2c3ccccc3c(NCc3cccnc3)nn12,-25.5
16,CC1(C)CC2CC(C)(CN2S(=O)(=O)c2ccc(C(=O)Nc3ccc(S(=O)(=O)N4CCOCC4)cc3)cc2)C1 (stereo not shown),16.5
17,CC1CCN(C(C)C(=O)Nc2cc(S(=O)(=O)N3CCCCC3)ccc2Cl)CC1 (stereo not shown),-18.3
18,CCN(CC)S(=O)(=O)c1ccc(N2CCOCC2)c(NC(=O)C(C)(C)C)c1,-0.765
19,O=C(O)Cn1cc2c(n1)CCCCC2,6.77
20,CCOC(=O)c1cnc(-n2nc(C)cc2C)nc1Oc1ccccc1F,-6.58
21,CCCn1nnc(NC(=S)NC(=O)C(C)(C)C)n1,-5.64
22,COc1ccc(C(=O)N/N=C/c2cn[nH]c2-c2ccc(OC)cc2OC)cc1,38.8
23,CCOc1ccc(C2C(C(=O)O)CCC(=O)N2C2CCCCC2)cc1 (stereo not shown),10.6
24,Cc1ccc(OC(=O)COc2ccccc2)c(-n2nc3ccccc3n2)c1,9.8
25,CC(OC(=O)c1ccc2c(=O)n3c(nc2c1)CCC3)C(N)=O (stereo not shown),20.6
26,Cc1c(C(=O)OCC(=O)NC(C)c2ccccc2)oc2ccccc12 (stereo not shown),23.3
27,Clc1cccc(N2CCN(c3ncnc4nc[nH]c34)CC2)c1,-2.38
